Test results as given in PubChem BioAssay AID1963576 (National Center for Advancing Translational Sciences (NCATS), 2024).
Hit rate of the full screen: of about 46,000 compounds, about 60 (0.1%) were called active. Another 3% or so got no clear call; they are omitted. Calls come from the whole dose curve; as a rule, active = well fitted inhibition curve with a large enough effect; inconclusive = small, poorly fitted or top-dose-only effect; inactive = no such curve, though single readings can be large or run the other way. The list shows a part of the results.

experiment: Primary qHTS assay for Inhibitors of ovarian cancer metastasis using an organotypic tumor microenvironment (TME) model.; note: nearly all actives have a fitted effect of over 65% in size;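 for activity change, negative = inhibition: plate controls were DMSO wells for no effect and tomatine positive control wells for full effect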; details: SKOV3ip1-GFP adhesion/invasion on 3D omental model, fluorescence; series mostly up to 45.8 µM; activity change, negative = inhibition: at the top concentration
Outline: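 Primary human omental fibroblast/mesothelial 3D culture pre-formed 48 h. SKOV3ip1-GFP cells added with compounds (0.36-46 umol/L), incubated 2 h RT/16 h 37 C, fixed; GFP cells quantified at 488/509 nm.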

Activity change, negative = inhibition, inactive:
COc1ccc(-c2nc(CN3CCC(C(=O)NCc4ccc(C)cc4)CC3)c(C)o2)cc1OC 0.395%
COc1ccc(C(=O)n2nc(-c3cccnc3)nc2NCc2ccccc2)cc1OC 8.21%
COc1ccccc1CNc1ncnc2onc(-c3ccc(F)cc3)c12 -11.9%
COc1ccc(CCNC(=O)C(=O)NCC(c2cccs2)S(=O)(=O)c2cccs2)cc1 (stereo unspecified) -21.6%
COc1ccc(CNC(=O)CN2C(=O)COc3ccc(S(=O)(=O)N4CCCCC4)cc32)cc1 35%
Cc1ccc(-c2noc(-c3cccnc3NCc3ccco3)n2)cc1 -4.89%
COc1ccc2c(CNC3CCCCCC3)c(C(=O)O)n(Cc3ccc(C)cc3)c2c1 -1.99%
Cc1cc(F)ccc1NC(=O)Cn1nc(N2CCN(c3ccccc3)CC2)ccc1=O -4.97%
CCOc1cccc(C(=O)Nc2ccc3oc(-c4ccncc4)nc3c2)c1 8.91%
Cc1cc(C)c(NC(=O)CSc2nc3nccnc3c(=O)n2CCc2c[nH]c3ccccc23)c(C)c1 -24.6%
COc1cc(OC)c(NS(=O)(=O)c2c(C)nc3sc(C)cn3c2=O)cc1Cl 4.99%
COc1ccc(-c2cc(OC(=O)c3ccccc3Cl)c3c(C)oc(C)c3c(=O)c2)cc1OC -24.4%
CCc1nnc(SCc2cccc(Cl)c2)c2cc3sccc3n12 -22.7%
CCCSc1oc(-c2cccs2)nc1S(=O)(=O)c1ccc(C)cc1 0.159%
COc1ccc(NC(=O)Cn2c(=O)n(CCCCCC(=O)NCc3ccc4c(c3)OCO4)c(=O)c3sccc32)cc1Cl -2.73%
Cc1ccc(Cn2c(C)c3cnn(CC(=O)O)c(=O)c3c2C)cc1 -1.34%
O=C1CCCC2=C1C(c1[nH]ncc1Cl)N=C(Nc1nc3ccccc3o1)N2 (stereo unspecified) -8.44%
COc1ccc2c(c1)c(CC(=O)Nc1cc(C)cc(C)c1)c(C)n2C(=O)c1ccc(Cl)cc1 3.88%
CCOc1cc(S(=O)(=O)NCCc2c(C)[nH]c3ccc(C)cc23)ccc1F 4.46%
COc1ccc(C)cc1NC(=O)c1sc2nc(-c3ccc(F)cc3)cn2c1C 3.53%
CCN(CC)C(=O)c1sc2c(c1C)c(=O)n(Cc1ccccc1)c(=O)n2Cc1cc(C)ccc1C 1.64%
O=C(NCc1ccccc1)c1cnc2sc(N3CCCC3)nn2c1=O -4.66%
COc1ccccc1NC(=O)c1sc(-c2ccc(Cl)cc2)cc1N -7.4%
CCc1ccc2c(c1)NC(c1ccc(F)cc1)=NC(c1ccncc1)=N2 0.475%
O=C(Nc1ccccc1C(F)(F)F)c1cc2nc(-c3ccccc3)cc(-c3ccccc3)n2n1 1.18%
Cc1cc2c(cc1S(=O)(=O)C(C)CC(=O)NC1CCC(C)CC1)OCC(=O)N2 (stereo unspecified) -0.148%
Cc1cc(C)c2oc(C(=O)Nc3ccc(S(=O)(=O)Nc4ncccn4)cc3)cc(=O)c2c1 -6.93%
CCOC(=O)c1[nH]c2c(c1Cc1ccccc1OC)C(=O)CC(c1ccccc1)C2 (stereo unspecified) 1.47%
CCCCn1c(=O)c2oc3ccccc3c2n(Cc2ccccc2C)c1=O -2.46%
O=C(COc1ccc(F)cc1)Nc1ccccc1C(=O)OCc1cc(=O)n2ccsc2n1 4.68%
COc1cc(NC(=O)C2=CC(c3ccco3)=NS(=O)(=O)N2C)cc(OC)c1OC -9.63%
Cc1ccc(C)c(N2CCN(C(=O)c3ccc4c(=O)n(CCc5ccccc5)c(=O)[nH]c4c3)CC2)c1 -2.15%
CCCSCCCNC(=O)CN1C(=O)COc2ccc(S(=O)(=O)N3CCCC3)cc21 9.54%
O=C(Nc1cc(-c2ccc(Cl)cc2)no1)c1ccc(F)cc1 -10.2%
NC(=O)c1ccccc1NC(=O)CN1c2ccccc2S(=O)(=O)c2ccccc21 6.51%
Cc1nc(-c2ccccc2)sc1CCNC(=O)C(=O)Nc1ccc(F)c(Cl)c1 -6.11%
O=C(Nc1sc2c(c1C(=O)NCc1ccccc1)CCCC2)c1cc(=O)c2ccccc2o1 0.799%
COc1nnc(-c2ccc(N3CCCCC3)c(NC(=O)c3ccccc3Cl)c2)c2ccccc12 4.16%
COc1cc(Cl)c(C)cc1NC(=O)Cn1c2ncccc2c(=O)n1-c1ccccc1 -7.48%
COc1cccc(N2CCN(C(=O)Cn3nc(C)n4c(cc5c(OC)cccc54)c3=O)CC2)c1 -6.82%
COCc1cc(C)nc2c1C(=O)NC(c1ccc(Br)cc1)N2Cc1ccccc1 (stereo unspecified) -12.8%
COC(=O)c1c(NC(=O)COc2ccc(Cl)cc2)sc(C)c1C -3.92%
CCOc1ccccc1C(=O)NCC(c1cccs1)S(=O)(=O)c1ccc(F)c(C)c1 (stereo unspecified) -9.77%
CCc1ccc(NC(=O)CSc2nc3c(c(=O)[nH]2)CN(Cc2ccc(C)cc2)CC3)cc1 -10.6%
O=C(NCc1ccc(Cl)cc1)C1CCN(c2ncnc3c2nc2n3CCCCC2)CC1 -2.31%
CCOC(=O)c1noc2ncnc(N3CCN(c4cccc(C(F)(F)F)c4)CC3)c12 46.7%
COc1ccc(Cn2c(=O)n(-c3ccc(OC)cc3)c(=O)c3c2c2cc(OC)ccc2n3C)cc1 7.18%
COc1cccc(-c2nc(SCC(=O)NCc3ccco3)c3c(=O)n(C)c(=O)n(C)c3n2)c1 2.23%
CC1CCN(C(=O)Cn2cc(SCC(=O)Nc3ccccc3)c3ccccc32)CC1 1.83%
O=C(CSc1c2c(nc3cc(Cl)ccc13)CCCC2)N1CCN(c2ccccc2)CC1 1.7%
CCOC(=O)c1c(-c2ccc(C)cc2)csc1NC(=O)c1cc(=O)c2cc(C)cc(C)c2o1 -10.3%

outcome, inactive:
CCOc1ccccc1Nc1nc2ccccc2nc1NS(=O)(=O)c1ccc(Cl)cc1
O=C(Nc1cccc(C(=O)OCc2cc(=O)n3c4c(sc3n2)CCCC4)c1)c1ccc(Cl)cc1
O=C(Cn1cc(SCc2ccc(F)cc2)c2ccccc21)N1CCCCC1
O=C(CCCn1ncn2c(cc3occc32)c1=O)NCc1ccccc1F
COCCc1nn2c(=O)cc(COC(=O)c3ccccc3C)nc2s1
CCc1ccc(NC(=O)C(=O)NCC(c2cccnc2)N2CCc3ccccc3C2)cc1 (stereo unspecified)
COc1ccc(Cl)cc1C(=O)NCc1nnnn1-c1ccccc1
CCc1ccc(-n2nnc(-c3nc(-c4ccc(C)cc4)no3)c2N)cc1
COc1cc(NC(=O)c2c3c(nc4ccccc24)C(=O)N(C2CCCCC2)C3)cc(OC)c1
COc1ccc(-n2c(SCc3ccccc3F)nc3c([nH]c4ccccc43)c2=O)cc1OC
